PubChem BioAssay (NCATS)
Inconclusive results, whose numbers are uncertain, are shown with a selection of clear calls. For part of these data: No potency is given beside an inconclusive call; the fits are too rough. Calls of active or inactive are those of the source. Unless noted, calls follow the shape of the dose curve; as a rule, active = well fitted curve in the direction sought with a large enough effect; inconclusive = small, poorly fitted or top-dose-only effect, or another doubt; inactive = no such curve, though single readings can be large; an effect the other way counts as inactive or inconclusive.

Assays:
[1] = qHTS of pediatric cancer cell lines to identify multiple opportunities for drug repurposing: Primary screen for A673 cells (AID 1347092); conditions: A673 Ewing sarcoma viability, CellTiter-Glo ATP luminescence, 48 h; activity change, negative = cytotoxic: at 46 µM (top of the series); also: potency is read from the fitted curve at half-maximal effect; nearly all actives have a fitted effect of over 45% in size
Method in brief: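 A673 cells (500-1,000 cells/well) were treated 48 hours at 37 degrees C with compounds at 11-point (0.78 nM to 46 µM) or 8-point (0.59 nM to 46 µM) dilutions. Viability read by CellTiter-Glo luminescence; concentration-response curves fitted.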

[2] = qHTS of pediatric cancer cell lines to identify multiple opportunities for drug repurposing: Primary screen for BT-37 cells (AID 1347094); also: potency is read from the fitted curve at half-maximal effect
Method in brief: (§1)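 Primary screen of approved and investigational compounds on cells in growth media at 37 degrees C, 5% CO2. MIPE set at 11-point and NPC set at 8-point dilutions; viability scored by ATP-based luminescence at 48 hours.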

[3] = qHTS of pediatric cancer cell lines to identify multiple opportunities for drug repurposing: Primary screen for Saos-2 cells (AID 1347097); conditions: Saos-2 viability, CellTiter-Glo ATP luminescence, 48 h; activity change, negative = cytotoxic: at 46 µM (top of the series); also: potency is read from the fitted curve at half-maximal effect; nearly all actives have a fitted effect of over 40% in size
Method in brief: as §1

[4] = qHTS of pediatric cancer cell lines to identify multiple opportunities for drug repurposing: Primary screen for BT-12 cells (AID 1347101); also: potency is read from the fitted curve at half-maximal effect; nearly all actives have a fitted effect of over 25% in size
Method in brief: (§2)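 Cells (500-1,000/well) rested 5 h, then received compounds for 48 h; metabolically active cells were measured by CellTiter-Glo luminescence. Final concentrations spanned up to 46 µM (MIPE, 11-point) or 0.59 nM-46 µM (NPC, 8-point) in primary screens, 11-point in follow-ups.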

[5] = qHTS of pediatric cancer cell lines to identify multiple opportunities for drug repurposing: Primary screen for Rh18 cells (AID 1347102); also: potency is read from the fitted curve at half-maximal effect; nearly all actives have a fitted effect of over 65% in size
Method in brief: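 Cells (500-1,000/well) in growth media were settled 5 h at 37 degrees C, then given compounds for 48 h. Viability was read as CellTiter-Glo luminescence. Primary runs used MIPE at 11 points (0.78 nM-46 µM) and NPC at 8 points (0.59 nM-46 µM); follow-ups used 11 points.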

[6] = qHTS of pediatric cancer cell lines to identify multiple opportunities for drug repurposing: Primary screen for OHS-50 cells (AID 1347103); also: potency is read from the fitted curve at half-maximal effect; nearly all actives have a fitted effect of over 40% in size
Method in brief: as §2

[7] = Primary qHTS for small molecule stabilizers of the endoplasmic reticulum resident proteome: Secreted ER Calcium Modulated Protein (SERCaMP) assay (AID 1508630); conditions: SH-SY5Y GLuc-SERCaMP (Gaussia luciferase released on ER calcium loss) secretion, thapsigargin, luminescence; series mostly up to 38.4 µM; also: potency is read from the fitted curve at half-maximal effect
Method in brief: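 The SH-SY5Y reporter protocol was run at 3 concentrations up to 38.3 uM (primary) or 11 concentrations (follow-up): 16 h compound, 100 nM thapsigargin for 4 h, then extracellular luciferase luminescence.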

[8] = A High-Content qHTS Against Drug Library for the Identification of Small Molecules that Inhibit DYT1 Early Onset Primary Dystonia-Associated Cell Pathology (AID 1645839; calls by dose curve; also: potency is read from the fitted curve at half-maximal effect)
Method in brief: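 Induced EGFP-delE TorsinA cells are imaged after 48 h of compound treatment. Punctate fusion-protein distribution gives the %pathology value, while nuclei counts flag toxicity. Wild-type EGFP-hTOR1A cells define the normal pattern.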

[9] = Primary redox qHTS assay for identification of artifact compounds. (AID 1845223); also: potency is read from the fitted curve at half-maximal effect
Method in brief: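 Redox-cycling detection via DTT (250 uM final) oxidation coupled to Amplex Red (25 uM)/HRP (250 mU/mL) in HBSS. 15 min preincubation plus 30 min after DTT, room temperature. Ex/Em 525/598 nm; 4-parameter Hill fit against DMSO and 10 uM DA3003.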

HeLa = experiment: Primary qHTS to identify gynecologic anti-cancer compounds using libraries of approved drugs and bioactive compounds (AID 1345084); conditions: Gynecologic cancer cell panel viability, ATPlite luminescence, 48 h; series mostly up to 57.5 µM; also: nearly all actives have a fitted effect of over 55% in size; also: potency is read from the fitted curve at half-maximal effect
Method in brief: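 Cells, 1,000 per well, plated 16 h, then exposed 48 h at 37 C to compounds. Viability by ATPlite luminescence after 15 min at room temperature.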

[10] = biological target: Cytochrome P450 2C9 (Homo sapiens) (UniProt P11712); experiment: Cytochrome P450 family 2 subfamily C member 9 (CYP2C9) small molecule antagonists: luciferase biochemical (cell-free) qHTS assay (AID 1645842; active = well fitted curve in the direction sought with a large enough effect in the repeat runs; inconclusive = weak or mixed curves; inactive = no such curve, though single readings can be large; an effect the other way counts as inactive or inconclusive; also: potency is read from the fitted curve at half-maximal effect; nearly all actives have a fitted effect of over 55% in size)
Method in brief: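 P450-Glo CYP2C9 system: proluciferin substrate with enzyme in mix containing 0.4% BSA, 10 min at room temperature, then NADPH regeneration solution added and incubated 1 h at 37C. Detection reagent stopped reaction; luminescence read after 20 min as RLU.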

[11] = tested on: Zika virus NS2B-NS3 protease (linked construct); experiment: Primary screen NINDS Rhodamine qHTS for Zika virus inhibitors (AID 1347160); also: nearly all actives have a fitted effect of over 55% in size; also: potency is read from the fitted curve at half-maximal effect
Method in brief: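 Rhodamine110-peptide cleavage (1.5 µM substrate) by 25 nM linked NS2B-NS3 enzyme at pH 8.0 (Tris, Tween 20), after 15 min RT preincubation with compounds; 15-min fluorescence change normalized to controls and Hill-fitted.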

[12] = qHTS of pediatric cancer cell lines to identify multiple opportunities for drug repurposing: Primary screen for NB1643 cells (AID 1347099); also: nearly all actives have a fitted effect of over 50% in size
Method in brief: as §1

[13] = biological target: Cytochrome P450 2D6 (Homo sapiens) (UniProt P10635); experiment: Cytochrome P450 family 2 subfamily D member 6 (CYP2D6) small molecule antagonists: luciferase biochemical (cell-free) qHTS assay (AID 1645840; active = well fitted curve in the direction sought with a large enough effect in the repeat runs; inconclusive = weak or mixed curves; inactive = no such curve, though single readings can be large; an effect the other way counts as inactive or inconclusive; also: potency is read from the fitted curve at half-maximal effect; nearly all actives have a fitted effect of over 55% in size)
Method in brief: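 P450-Glo CYP2D6 system: proluciferin substrate converted by enzyme to luciferin, read by luminescence proportional to activity. Enzyme-substrate mix with compound 10 min at room temperature, then NADPH regeneration 1 h before detection reagent.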
Tags tell the direction and shape of the fitted curve.

Chain of UniProt P11712 (P11712 whole entry, looked up): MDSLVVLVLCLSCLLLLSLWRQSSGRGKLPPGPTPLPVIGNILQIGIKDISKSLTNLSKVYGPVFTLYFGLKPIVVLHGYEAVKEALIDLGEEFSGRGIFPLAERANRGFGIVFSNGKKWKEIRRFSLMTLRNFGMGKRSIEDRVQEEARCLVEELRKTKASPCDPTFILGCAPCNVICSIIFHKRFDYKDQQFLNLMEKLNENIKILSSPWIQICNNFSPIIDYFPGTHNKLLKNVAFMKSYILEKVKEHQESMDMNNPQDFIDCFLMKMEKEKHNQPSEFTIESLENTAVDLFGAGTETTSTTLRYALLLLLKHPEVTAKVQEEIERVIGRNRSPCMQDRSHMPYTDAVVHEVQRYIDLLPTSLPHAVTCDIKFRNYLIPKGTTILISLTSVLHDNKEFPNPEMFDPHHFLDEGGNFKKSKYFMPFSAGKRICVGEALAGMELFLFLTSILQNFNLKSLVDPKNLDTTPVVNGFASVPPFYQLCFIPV
Chain of UniProt P10635 (P10635 whole entry, looked up): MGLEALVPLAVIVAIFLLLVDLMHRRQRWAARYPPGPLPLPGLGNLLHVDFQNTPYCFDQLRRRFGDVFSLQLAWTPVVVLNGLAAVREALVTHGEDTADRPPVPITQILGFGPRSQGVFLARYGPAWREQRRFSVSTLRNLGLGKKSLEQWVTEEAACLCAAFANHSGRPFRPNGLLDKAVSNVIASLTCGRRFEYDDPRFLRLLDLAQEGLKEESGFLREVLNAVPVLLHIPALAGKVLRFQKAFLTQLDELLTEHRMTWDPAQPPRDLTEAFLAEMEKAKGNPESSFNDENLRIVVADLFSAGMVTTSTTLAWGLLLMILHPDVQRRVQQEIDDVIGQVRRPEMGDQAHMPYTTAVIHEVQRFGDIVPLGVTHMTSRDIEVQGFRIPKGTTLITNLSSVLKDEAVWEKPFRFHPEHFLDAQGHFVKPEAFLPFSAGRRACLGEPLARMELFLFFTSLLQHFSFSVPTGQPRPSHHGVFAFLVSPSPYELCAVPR

CCCCN(CCCC)CC(O)c1cc(Cl)cc2c1-c1ccc(Cl)cc1/C2=C/c1ccc(Cl)cc1 (stereo not drawn)
Potency [1]: inconclusive [cytotoxic, single point]
Potency [2]: inconclusive [cytotoxic, partial curve]
Potency [3]: inconclusive [cytotoxic, single point]
Potency [4]: inconclusive [cytotoxic, single point]
Potency [5]: active: 21.1 µM
Potency [6]: inconclusive [cytotoxic, single point]
Potency [7]: inconclusive [inhibitor, single point]
Potency [8]: inconclusive [inhibitor, partial curve, poor fit]

CC(=O)O[C@H]1CC(C)(C)CC2[C@]13CO[C@@]21CCC2[C@@]4(C)CC[C@H](O[C@@H]5OC[C@H](O[C@@H]6O[C@H](CO)[C@@H](O)[C@H](O)[C@H]6O[C@@H]6OC[C@@H](O)[C@H](O)[C@H]6O)[C@H](O)[C@H]5O[C@@H]5O[C@H](CO)[C@@H](O)[C@H](O)[C@H]5O)[C@@](C)(CO)C4CC[C@@]2(C)[C@]1(C)C[C@H]3O (stereo partly drawn)
Potency [9]: inconclusive [activator, partial curve]

C/C(=C\Cc1c(O)c(Cl)c(C)c(C=O)c1O)CC/C=C(\C)[C@H]1CC(=O)C(C)(C)O1
Potency [9]: inconclusive [activator, partial curve, poor fit]
Potency (HeLa): inconclusive [cytotoxic, partial curve]

O=C(NCCN1CCOCC1)c1cc2c(Oc3ccc(NC(=O)C4(C(=O)Nc5ccc(F)cc5)CC4)cc3)ccnc2[nH]1
Potency [10]: active: 12 µM

NC(=O)[C@H]1CCS[C@@H]2C[C@]3(CCCN3C(=O)Cc3ccc(NC(=O)COc4ccc(Cl)cc4Cl)cc3)C(=O)N12
Potency [9]: inactive

NCc1ccc(OCCCc2sc(-c3ccc4c(c3)/C(=N/Nc3nc5ccccc5s3)CCC4)nc2C(=O)O)cc1
Potency (HeLa): inconclusive [cytotoxic, full curve]

CCOCc1cc(OC)c(-c2ccc(C[C@H](NC(=O)c3c(F)cccc3F)C(=O)O)cc2)c(OC)c1
Potency [10]: inconclusive [inhibitor, partial curve, poor fit]

Cc1cn2cc(C(=O)N(C)CCO)cc(NC3CCOc4cccc(C)c43)c2n1 (stereo not drawn)
Potency [11]: inconclusive [inhibitor, partial curve, poor fit]
Potency [10]: active: 19 µM

C=C(C)C(=O)OC1C(OC(C)=O)/C(C=O)=C\CC/C(CO)=C/C2OC(=O)C(=C)C21 (stereo not drawn)
Potency [9]: inactive

CN1CCN(S(=O)(=O)c2ccc(-c3cnc(N)c(C(=O)Nc4cccnc4)n3)cc2)CC1
Potency [10]: inconclusive [inhibitor, partial curve]

Fc1ccc(C(c2ccc(F)cc2)N2CCNCC2)cc1
Potency [12]: inactive
Potency [6]: inconclusive [cytotoxic, full curve]
Potency [7]: inconclusive [inhibitor, partial curve, poor fit]
Potency [13]: active: 7.76 µM

COc1ccc(S(=O)(=O)n2cnc3cc(C)c(C)cc32)cc1
Potency (HeLa): inactive

C[C@@H]1CC[C@]2(C(=O)O)CC[C@]3(C)C(=CCC4[C@@]5(C)CC[C@H](O)[C@](C)(C(=O)O)C5CC[C@]43C)C2[C@]1(C)O (stereo partly drawn)
Potency (HeLa): inactive

O=C(C1CC1)N1CC[C@@H](Cc2n[nH]c(=O)n2-c2ccc(-c3ccc4occc4c3)cc2)C1
Potency [10]: active: 6.74 µM

Cc1ccc(C(=O)Nc2noc3ccccc23)cc1
Potency [11]: inconclusive [inhibitor, partial curve, poor fit]

CNC(=O)c1cc(Oc2ccc3nc(N[C@@H]4CCCC[C@H]4O)sc3c2)ccn1
Potency (HeLa): inconclusive [cytotoxic, partial curve, poor fit]

CC(C)=CCc1ccc(Oc2c(O)cc(C)cc2CO)c(C(=O)O)c1O
Potency [11]: inconclusive [inhibitor, single point]
Potency [9]: inconclusive [activator, partial curve, poor fit]

C=C1C(=O)O[C@@H]2/C=C(\C)CC/C=C(/C=O)[C@H](OC)[C@@H](OC(=O)C(C)C)[C@@H]12
Potency [11]: inactive

O=C1NC(c2cccc([N+](=O)[O-])c2)=CCN1c1ccccc1O
Potency [7]: inconclusive [inhibitor, partial curve, poor fit]
Potency [9]: inconclusive [activator, partial curve, poor fit]
